Out of some 280,000 compounds screened, about 1,100 (0.39%) were called active. Inconclusive means that the source gave no clear call. Such entries were picked first, then a sample of the others. Calls come from the whole dose curve; as a rule, active = well fitted inhibition curve with a large enough effect; inconclusive = small, poorly fitted or top-dose-only effect, or effect the other way; inactive = flat fitted curve, though single readings scatter. Potencies of inconclusive entries are left out as doubtful fits.
Each compound was assayed against Microtubule-associated protein tau (Homo sapiens) (UniProt P10636) (assay: qHTS for Inhibitors of Tau Fibril Formation, Fluorescence Polarization). Settings: K18 P301L tau heparin fibrillization, Alexa594 FP, 6 h; series mostly up to 57.7 µM; activity, negative = inhibition: at the top concentration.
UniProt P10636, sequence (P10636 whole entry, looked up): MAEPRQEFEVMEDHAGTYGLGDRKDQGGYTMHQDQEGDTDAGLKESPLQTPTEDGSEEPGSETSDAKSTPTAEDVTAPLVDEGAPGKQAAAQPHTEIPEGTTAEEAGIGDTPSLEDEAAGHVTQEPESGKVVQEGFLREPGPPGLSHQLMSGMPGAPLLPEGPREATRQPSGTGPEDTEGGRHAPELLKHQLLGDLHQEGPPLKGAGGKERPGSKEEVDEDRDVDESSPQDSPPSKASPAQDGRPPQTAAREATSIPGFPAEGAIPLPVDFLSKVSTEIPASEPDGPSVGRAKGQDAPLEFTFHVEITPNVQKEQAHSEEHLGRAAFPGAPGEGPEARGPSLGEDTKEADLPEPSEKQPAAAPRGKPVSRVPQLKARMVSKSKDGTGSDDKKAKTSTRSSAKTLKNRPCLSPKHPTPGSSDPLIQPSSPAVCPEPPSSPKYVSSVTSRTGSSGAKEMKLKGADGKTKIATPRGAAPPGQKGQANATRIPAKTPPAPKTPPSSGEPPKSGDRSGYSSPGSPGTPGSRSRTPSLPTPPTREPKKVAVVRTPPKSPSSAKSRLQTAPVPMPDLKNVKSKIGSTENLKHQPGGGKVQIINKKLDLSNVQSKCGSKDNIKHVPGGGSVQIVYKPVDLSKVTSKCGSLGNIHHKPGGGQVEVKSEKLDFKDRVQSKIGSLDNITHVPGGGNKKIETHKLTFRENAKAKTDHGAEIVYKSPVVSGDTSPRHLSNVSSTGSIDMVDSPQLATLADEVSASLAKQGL
Method in brief: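 Read-out: fluorescence polarization of Alexa 594-labeled tau (0.24 uM), 555 nm excitation, 632 nm emission. Mixtures held 15 uM unlabeled K18 P301L, compound and 20 uM heparin, pH 7 acetate buffer, incubated 6 hr at 37 C.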
For `Cc1cc(C)c2c(=O)nc(SCc3ccccc3C)n(C3CC3)c2n1`, the Potency was inconclusive [inhibitor, single point].
`CCC(C)NS(=O)(=O)c1ccc(NC(=O)C(Sc2ccccc2)c2ccccc2)cc1` (stereo not given) was tested, and the Potency was inconclusive [inhibitor, partial curve, poor fit].
With `CCOc1ccc(CCNC(=O)CCCn2c(=O)c3cccn3c3ccccc32)cc1` the Potency was inconclusive [inhibitor, single point].
In the case of `O=C(Nc1cccc(S(=O)(=O)N2CCCCC2)c1)c1ccc(S(=O)(=O)C(F)F)cc1`, the Potency is reported as inconclusive [inhibitor, single point].
For `Cc1nc(SCC(=O)c2ccc(Cl)s2)c2oc3ccccc3c2n1`, the “activity, negative = inhibition” value was inactive: -10.4%.
With `Cc1ccc(NC(=S)N(Cc2cccs2)Cc2cc3cccc(C)c3[nH]c2=O)cc1` the Potency was inconclusive [inhibitor, single point].
For `COc1ccc(CNC(=O)/C=C/C(=O)O)cc1OC`, the “activity, negative = inhibition” value was inactive: -10.5%.
With `Cc1cc(NC(=O)COC(=O)C(Nc2ccc(C(F)(F)F)cc2Cl)C(C)C)no1` (stereo not given) the Potency was inconclusive [inhibitor, partial curve].
In the case of `Cc1ccc(Cl)cc1NC(=O)C(C)n1nc(-c2ccccc2)ccc1=O` (stereo not given), the “activity, negative = inhibition” value is reported as inactive: 4.99%.
With `S=c1[nH]c2ccc(Cl)cc2s1` the “activity, negative = inhibition” value was inactive: -4.75%.
For `O=C(Cc1cccc2ccccc12)Nc1ccc(-c2cc3ccccc3oc2=O)cc1`, the Potency was inconclusive [inhibitor, partial curve, poor fit].
With `O=C(CSc1ccc(Cl)cc1)Nc1ccc(NC(=O)c2ccco2)cc1` the Potency was inconclusive [inhibitor, partial curve].
With `Cc1ccc(-n2c(=O)c3c(C)c(C)sc3n(CC(=O)NCc3ccccc3)c2=O)cc1C` the “activity, negative = inhibition” value was inactive: -10.2%.
With `CC(CCc1ccc(O)cc1)NCCc1ccc(O)c(O)c1` (stereo not given) the Potency was “inactive”.
`OC1CCN(c2ncnc3nc[nH]c23)CC1` was tested, and the “activity, negative = inhibition” value was inactive: 7.28%.
`CC(/C=C1\SC(=S)N(NS(=O)(=O)c2ccccc2)C1=O)=C\c1ccccc1` was tested, and the Potency was inconclusive [inhibitor, partial curve].
In the case of `CC(C)C1C(C#N)=C(N)Oc2n[nH]c(-c3ccc4ccccc4c3)c21` (stereo not given), the Potency is reported as inconclusive [inhibitor, partial curve].
In the case of `Cc1ccccc1NC(=O)c1c(C)oc2ccc(O)c(CN3CCN(C)CC3)c12`, the “activity, negative = inhibition” value is reported as inactive: -4.96%.
In the case of `COc1ccc(NC(=O)Cn2c(=O)ccc3cc(S(=O)(=O)N4CCCC4)ccc32)cc1Cl`, the Potency is reported as inconclusive [inhibitor, partial curve, poor fit].
In the case of `CCOC(=O)c1c(-c2ccc(C)o2)csc1NC(=O)CN1CCOCC1`, the “activity, negative = inhibition” value is reported as inactive: 3.6%.
For `Clc1cccc(-n2ncc3c(NCCCn4ccnc4)ncnc32)c1`, the Potency was inconclusive [inhibitor, partial curve].
In the case of `CC1=C(C#N)C(=O)NC(=O)/C1=C\c1ccc(-c2ccc(C)cc2[N+](=O)[O-])o1`, the Potency is reported as inconclusive [inhibitor, partial curve].
In the case of `CN1CCN(C(=O)c2ccc3c(c2)NC(=O)C(C)(C)O3)CC1`, the “activity, negative = inhibition” value is reported as inactive: 1.66%.
For `O=C(Nc1ccc(Cl)c(C(F)(F)F)c1)C1CCN(S(=O)(=O)c2cccc3nonc23)CC1`, the Potency was inconclusive [inhibitor, partial curve].
For `CC(C)S(=O)(=O)c1csc(NC(=O)Nc2cc(Cl)ccc2Cl)c1Cl`, the Potency was active: 22.4 µM.
For `COC(=O)c1ccc2c(c1)C(C)(C)C(/C=C/c1ccccc1O)=[N+]2C`, the Potency was inconclusive [inhibitor, single point].
`CCCC[C@@H]1C[C@H]1C(NC(=O)Cc1ccccc1)c1ccc(-c2ccccc2)cc1` (stereo not given in full) was tested, and the “activity, negative = inhibition” value was inactive: 3.15%.
In the case of `Cc1cn([C@H]2C[C@H](O)[C@@H](CO)O2)c(=O)[nH]c1=O`, the Potency is reported as “inactive”.
`COc1ccccc1NC(=O)CSc1nc(-c2ccccc2F)nc2cc(=O)[nH]n12` was tested, and the “activity, negative = inhibition” value was inactive: -4.26%.
In the case of `Cc1nc(NC(=O)c2ccccc2)sc1-c1csc(NCc2ccccc2)n1`, the Potency is reported as inconclusive [activator, single point].
With `COC1=C(Nc2ccc(O)cc2)C(=O)c2ccccc2C1=O` the Potency was inconclusive [inhibitor, partial curve].
`CN1C(=O)C2(N=c3ccccc3=N2)c2ccccc21` was tested, and the Potency was inconclusive [inhibitor, partial curve].
In the case of `O=C(NCCN=C1NS(=O)(=O)c2ccccc21)c1ccc2nccnc2c1`, the Potency is reported as inconclusive [inhibitor, single point].
For `CC1(Cn2ccnn2)[C@H](C(=O)O)N2C(=O)C[C@H]2S1(=O)=O` (stereo not given in full), the “activity, negative = inhibition” value was inactive: 1.78%.
`O=C1C2=CC[C@H]3C(=O)N(C4CCCCC4)C(=O)[C@@H]3[C@@H]2[C@H](O)[C@@H]2O[C@H]12` was tested, and the Potency was inconclusive [inhibitor, partial curve].
With `Cc1ccc(C)c(Cn2nnc3c(=O)[nH]c(C(=O)NCc4ccco4)nc32)c1` the Potency was inconclusive [inhibitor, single point].
`Oc1ccc2ccccc2c1C=NC12CN3CCN(CN(C3)C1)C2` was tested, and the Potency was inconclusive [inhibitor, partial curve].
`O=c1cc(-c2ccccc2)[nH]c2[nH]n(-c3ccccc3)c(=O)c12` was tested, and the Potency was inconclusive [inhibitor, single point].
In the case of `Cc1ccc(NC(=O)Cn2c(=O)n(CCC(=O)NCc3ccccc3Cl)c(=O)c3ccccc32)cc1`, the Potency is reported as inconclusive [inhibitor, partial curve].
In the case of `Cn1c(=O)[nH]c(=O)c2c1nc(CN1CCN(c3ccccc3F)CC1)n2CCCc1ccccc1`, the “activity, negative = inhibition” value is reported as inactive: -12.9%.
In the case of `CCCCCCCC#Cc1ccccc1/C=N/S(=O)c1ccc(C)cc1` (stereo not given), the Potency is reported as “inactive”.
With `O=C(CSc1ccc(-c2nc3ccccc3[nH]2)cn1)Nc1ccc2c(c1)OCCO2` the Potency was inconclusive [inhibitor, single point].
For `O=C(COC(=O)CCCCCN=C1NS(=O)(=O)c2ccccc21)Nc1ccc(Cl)c(Cl)c1`, the Potency was inconclusive [inhibitor, partial curve].
With `O=C(/C=C/c1ccc2c(c1)OCO2)c1ccco1` the “activity, negative = inhibition” value was inactive: 6.73%.
In the case of `COc1ccc(-c2csc(-c3ccccc3)n2)c(OC)c1`, the Potency is reported as inconclusive [inhibitor, single point].
% is set by controls: 0 for no effect and ±100 for the full control effect; potency is the fitted concentration of half-maximal effect; tags give direction and shape of the fitted curve.
Note: nearly all actives have a fitted effect of over 55% in size.
